# Test results from article PMC4336329 (PLoS ONE, 2015).
# Among all 310,000 compounds or so, about 14,000 (4.5%) showed an effect of 50% or more. Effects have a minus sign here. Some of the results follow.
# Target: human ether-à-go-go-related gene (hERG) potassium channel (human, UniProt Q12809)
# Assay: primary screen, population patch clamp on CHO cells stably expressing hERG
# 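Note: peak tail current of the secondary pulse compared with the same well before compound.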
# Chain of human ether-à-go-go-related gene (hERG) potassium channel (Q12809 whole entry, looked up): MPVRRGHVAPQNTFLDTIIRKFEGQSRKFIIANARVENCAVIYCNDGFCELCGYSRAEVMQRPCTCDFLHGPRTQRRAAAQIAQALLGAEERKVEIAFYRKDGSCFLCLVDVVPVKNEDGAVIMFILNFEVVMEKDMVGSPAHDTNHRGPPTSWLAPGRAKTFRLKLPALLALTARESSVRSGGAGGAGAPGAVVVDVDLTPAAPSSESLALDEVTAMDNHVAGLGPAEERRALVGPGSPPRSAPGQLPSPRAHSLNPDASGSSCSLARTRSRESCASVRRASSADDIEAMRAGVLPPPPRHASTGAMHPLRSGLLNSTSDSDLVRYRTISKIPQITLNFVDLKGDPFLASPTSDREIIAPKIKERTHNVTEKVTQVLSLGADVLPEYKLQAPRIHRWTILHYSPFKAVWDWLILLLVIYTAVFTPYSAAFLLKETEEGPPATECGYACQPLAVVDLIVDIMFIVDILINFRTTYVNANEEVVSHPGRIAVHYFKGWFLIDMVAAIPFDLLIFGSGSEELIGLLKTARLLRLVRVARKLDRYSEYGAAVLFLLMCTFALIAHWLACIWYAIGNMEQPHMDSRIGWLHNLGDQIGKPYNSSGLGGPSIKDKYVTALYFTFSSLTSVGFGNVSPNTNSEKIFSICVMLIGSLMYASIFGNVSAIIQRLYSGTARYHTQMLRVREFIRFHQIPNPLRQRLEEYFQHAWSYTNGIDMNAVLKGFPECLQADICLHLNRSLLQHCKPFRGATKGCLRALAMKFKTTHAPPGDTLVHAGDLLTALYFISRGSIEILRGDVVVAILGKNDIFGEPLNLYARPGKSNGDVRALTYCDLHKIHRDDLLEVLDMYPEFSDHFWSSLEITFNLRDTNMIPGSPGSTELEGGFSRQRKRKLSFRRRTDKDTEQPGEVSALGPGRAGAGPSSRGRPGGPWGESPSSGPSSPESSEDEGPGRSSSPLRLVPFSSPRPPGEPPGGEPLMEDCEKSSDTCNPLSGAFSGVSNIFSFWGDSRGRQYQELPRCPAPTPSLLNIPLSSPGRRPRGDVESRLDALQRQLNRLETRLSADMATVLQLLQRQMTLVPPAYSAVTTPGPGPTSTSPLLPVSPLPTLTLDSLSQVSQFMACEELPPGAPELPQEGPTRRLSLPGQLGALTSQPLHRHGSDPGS
row,Structure (SMILES),"hERG current change (%, negative = inhibition) at 10uM [%]"
1,CCNc1nc(OC)nc(Oc2ccc(C(=O)OC)cc2)n1,2.62
2,CC(=O)N1CCC(N(C(=O)Nc2ccc(F)cc2)C2CCCC2)CC1,9.6
3,O=S(=O)(c1ccc2ccccc2c1)N(CC1CO1)c1ccccc1 (stereo not shown),0.482
4,COc1ccc(NC(=O)c2cc(S(=O)(=O)N3CCOCC3)cn2C)c(OC)c1,0.246
5,N#Cc1c(Cl)nc(Cl)c2c1CCN(Cc1ccccc1)C2,-4.13
6,COc1ccccc1OCC(=O)N1CCCC(N2CCN(c3ccc(F)cc3)CC2)C1 (stereo not shown),-52.9
7,Cl.O=C(c1ccco1)N1CCN(CCCCOc2cccc3ccccc23)CC1,-62.4
8,COc1ccc(Br)cc1/C=N/NC(=O)C(c1ccncc1)N1CCOCC1 (stereo not shown),7.87
9,CC(C)Nc1ccc(Nc2ccnc3cc4ccccc4cc23)cc1,-72.7
10,COC(=O)Cn1c(N2CCCC2)nc2c1c(=O)n(C)c(=O)n2C,17.8
11,O=C1CCN(S(=O)(=O)c2ccc(Br)cc2)CCN1,6.3
12,Cc1ccc(NC(=O)O/N=C/c2ccc(F)cc2)cc1,2.68
13,CN(C)CCNC(=S)Nc1cccc(Cl)c1,-27
14,CSc1ccccc1C(=O)OCC(=O)N1CCCC1=O,-13.4
15,Cc1cc(NCCCOC(C)C)n2c(nc3ccccc32)c1C#N,-0.271
16,Cc1ccc(S(=O)(=O)N(C)C)cc1NC(=S)N1CCc2ccccc21,11.5
17,CCCOc1ccc(S(=O)(=O)Nc2ccccn2)c2ccccc12,13.8
18,COC(=O)/C(=C/c1ccco1)NC(=O)c1ccco1,5.61
19,CNC(=S)N/N=C/c1ccccc1OCC(=O)O,18.4
20,O=c1[nH]cnc2scc(-c3ccc(-c4ccccc4)cc3)c12,14.1

row,Structure (SMILES),"hERG current change (%, negative = inhibition) at 10uM [%]"
1,O=C(CSc1nnc2ccccn12)Nc1cccc(S(=O)(=O)N2CCOCC2)c1,4.8
2,Cc1ccc(NC(=S)N(CCN2CCCCC2)Cc2ccco2)cc1C,-80.3
3,CC1CN(c2ccc([N+](=O)[O-])c(N3CCCCC3)c2)CCN1 (stereo not shown),-28.3
4,COc1ccc(OC)c2nc3c(cc12)CCC3,20.8
5,CCc1ccc(N(CC(=O)NC2CCCCC2)S(=O)(=O)c2c(C)noc2C)cc1,10.1
6,O=C(Nc1ncc(Br)s1)C1CCCN1S(=O)(=O)c1cccc2cccnc12 (stereo not shown),-3.36
7,CC1(C)CC(=O)C2=C(C1)NC(SCC(=O)Nc1ccccc1)=C(C#N)C21CCCCC1,-3.83
8,CCN(CC(=O)Nc1c(F)cccc1F)C(=O)c1ccc(C2SCCS2)cc1,0.0972
9,Cc1ccc(OCC(=O)n2cnnc2N)c(C)c1,17.3
10,Cc1ccc(C(=O)NC(=S)NCCN2CCOCC2)cc1,23.3
11,Cc1ccc(N(C(C)C(=O)Nc2cc(Cl)ccc2Oc2ccccc2)S(C)(=O)=O)cc1 (stereo not shown),12.9
12,Cn1c(=O)c2c(nc(CN3CCCCC3)n2Cc2c(F)cccc2Cl)n(C)c1=O,3.06
13,COc1ccc(-c2cc(C(F)(F)F)c3c(N)c(C(=O)NCCSC)sc3n2)cc1,-10.7
14,CCOc1ccccc1NC(=O)C(=O)CC(=O)c1ccc(OC)cc1,6.53
15,O=C(Nc1ccc2c(c1)OCCO2)C1CC(O)CN1C(=O)Nc1ccccc1 (stereo not shown),9.37
16,CC(C)CCN(C)c1ccc(/C=N/n2cnnc2)cc1,-10.4
17,CC1CCN(c2nc3ccccc3nc2N2CCC(C)CC2)CC1,2.06
18,CCCCNC(=O)C1CCN(S(=O)(=O)c2c(C)noc2/C=C\c2ccc(OC)cc2)CC1,8.64
19,CCOC(=O)c1c(NC(=O)c2c(C(=O)O)cccc2[N+](=O)[O-])sc(C)c1C,25.9
20,Cc1cccc[n+]1CC(=O)Nc1ccccc1.[Cl-],6.56

row,Structure (SMILES),"hERG current change (%, negative = inhibition) at 10uM [%]"
1,COC(=O)c1c(NC(=O)/C=C/C(=O)O)sc(Cc2ccccc2)c1C,-12.8
2,N#CCSc1nnc(-c2ccc(F)cc2)n1N,13.2
3,COc1cc(NS(=O)(=O)c2c(C)[nH]c(C)c2C(=O)N2CCCC2)cc(OC)c1OC,2.89
4,COc1cc(-c2n[nH]c(=O)o2)cc(OC)c1OC,-20.7
5,O=C(Nc1ccccc1F)c1ccc(COc2ccc(Cl)cc2Cl)o1,3.67
6,CN(C)/C=N/c1cc(=O)[nH]c(=O)n1CC1CC1,23.5
7,COC(=O)c1ccc(CNC(=O)CNC(=O)c2sc3ccccc3c2Cl)cc1,10.2
8,CC(=O)Nc1nc2cc([N+](=O)[O-])ccc2s1,1.8
9,Cc1cc2c(cc1S(=O)(=O)NCCc1ccccc1)NC(=O)CO2,1.2
10,COC(=O)c1c(NC(=O)CSc2nc3ccccc3c(=O)n2-c2ccccc2)sc(C)c1C,5.82
11,COc1ccc(N2C(=O)C3CCCN3C2c2ccccc2OC)cc1 (stereo not shown),24.5
12,COCCN1Cc2cccc(C(=O)NCCc3ccccc3)c2C1=O,-6.1
13,CCCC1=NN(C(=O)Cc2ccc(OC)cc2)C(O)(C(F)(F)F)C1 (stereo not shown),-3.94
14,Cc1cc(Oc2nc3c(C)cccn3c(=O)c2/C=C(\C#N)S(=O)(=O)c2ccccc2)ccc1Cl,3.51
15,CC(C)CCN1CCN(C2CCN(c3ccccc3)CC2)CC1CCO (stereo not shown),-60.9
16,CCCCCN(C(=O)CCC(=O)OCCOc1cccc(C)c1)c1c(N)n(CCCC)c(=O)[nH]c1=O,-27.7
17,COc1cccc(CN2CCNC(=O)C2CC(=O)NC2CCCCC2)c1OC (stereo not shown),8.01
18,CN(C)CCN(Cc1ccccc1)c1nccc(N(C)C)c1C#N.O.O=C(O)C(=O)O,-11.8
